The text below walks through data of US20210230272A1 (L AND L BIOPHARMA, published 2021).

For assay [1], the target named is T1, human T cell CD3 (human).
T1 construct: whole, on cells; also called CD3 (T cell)
As to the kind of experiment: flow cytometry; EC50 ratio to LB155.

The target in assay [2] is T1, human T cell CD3. Kind of assay: flow cytometry on activated human T cells.
The target in assay [3] is T2, FcγR I/CD64 (UniProt P12314 16-288).
T2 construct: also called CD64 (FcγR I)
As to the kind of experiment: ELISA, CD64 coated.

For assay [4], the target named is T3, TGFβ1 (human, UniProt P01137 fragment).
T3 construct: also called TGFβI; human TGFβI
Kind of assay: ELISA, TGFβ1 coated.

The target of assay [5] is T4, TGFβ2 (human, UniProt P61812 303-414).
T4 construct: also called TGFβII
T4 sequence (looked up): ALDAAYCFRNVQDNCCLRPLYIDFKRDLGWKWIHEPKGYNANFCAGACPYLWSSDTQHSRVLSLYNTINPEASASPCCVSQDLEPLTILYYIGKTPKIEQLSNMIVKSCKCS
As to the kind of experiment: ELISA, TGFβ2 coated.

Assay [6] has as its target T3, TGFβ1. As to the kind of experiment: ELISA, TGFβ1 coated; mouse serum 37° C., 0 h.
The target of assay [7] is T3, TGFβ1. Kind of assay: ELISA, TGFβ1 coated; mouse serum 37° C., 24 h.
T3 sequence (P01137 279-390 limits assumed): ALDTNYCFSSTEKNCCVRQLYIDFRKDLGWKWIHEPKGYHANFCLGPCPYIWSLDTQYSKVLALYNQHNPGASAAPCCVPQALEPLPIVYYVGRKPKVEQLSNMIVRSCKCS
Assay [8] concerns the target T3, TGFβ1. Kind of assay: ELISA, TGFβ1 coated; mouse serum 37° C., 72 h.
The target of assay [9] is T5, IL10 antibody (Sino biological, Cat #SEKA10947).
T5 construct: also called IL10 Ab; HRP labeled rabbit anti-human IL10
As to the kind of experiment: ELISA with IL10 Ab; mouse serum 37° C.

In assay [10] the target is T5, IL10 antibody (Sino biological, Cat …). Kind of assay: ELISA with IL10 Ab; mouse serum 37° C., 0 h.
The target is the same in assay [11]. As to the kind of experiment: ELISA with IL10 Ab; mouse serum 37° C., 24 h.
For assay [12] the target is unchanged. Kind of assay: ELISA with IL10 Ab; mouse serum 37° C., 72 h.
For assay [13] the target is unchanged. Kind of assay: sandwich ELISA: hCLDN18.2+ cells on the plate, HRP rabbit anti-human IL10.
For assay [14] the target is unchanged. As to the kind of experiment: ELISA for the IL10 part.

T1 sequence (P07766 23-207, chain 1 of 4): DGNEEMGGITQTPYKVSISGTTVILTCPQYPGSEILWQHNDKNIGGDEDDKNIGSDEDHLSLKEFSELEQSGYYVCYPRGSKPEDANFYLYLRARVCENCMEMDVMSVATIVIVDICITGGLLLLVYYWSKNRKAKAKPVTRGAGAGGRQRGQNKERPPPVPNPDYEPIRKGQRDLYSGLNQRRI
T1 sequence (P09693 23-182, chain 2 of 4, further chain): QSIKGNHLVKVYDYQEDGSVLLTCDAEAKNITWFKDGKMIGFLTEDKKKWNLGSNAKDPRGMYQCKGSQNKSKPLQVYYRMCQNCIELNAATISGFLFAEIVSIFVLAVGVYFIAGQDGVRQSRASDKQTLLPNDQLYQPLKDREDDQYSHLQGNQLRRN
T1 sequence (P04234 22-171, chain 3 of 4, further chain): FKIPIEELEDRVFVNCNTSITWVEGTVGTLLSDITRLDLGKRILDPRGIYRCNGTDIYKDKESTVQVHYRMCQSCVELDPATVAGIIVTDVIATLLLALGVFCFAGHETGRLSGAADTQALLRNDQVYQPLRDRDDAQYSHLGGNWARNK
T1 sequence (P20963 22-164, chain 4 of 4, further chain): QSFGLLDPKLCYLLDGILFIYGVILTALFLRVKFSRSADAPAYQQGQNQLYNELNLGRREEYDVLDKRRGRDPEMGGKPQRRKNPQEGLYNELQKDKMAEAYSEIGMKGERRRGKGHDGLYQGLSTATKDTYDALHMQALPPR
T2 sequence (P12314 16-288 limits assumed): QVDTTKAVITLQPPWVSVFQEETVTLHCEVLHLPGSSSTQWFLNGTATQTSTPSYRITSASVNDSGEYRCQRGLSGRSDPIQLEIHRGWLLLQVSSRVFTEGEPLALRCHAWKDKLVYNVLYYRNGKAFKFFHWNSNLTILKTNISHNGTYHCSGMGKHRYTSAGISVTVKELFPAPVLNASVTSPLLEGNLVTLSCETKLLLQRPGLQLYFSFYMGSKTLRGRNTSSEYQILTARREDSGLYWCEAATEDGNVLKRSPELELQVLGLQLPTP

B1: LB193 (bispecific antibody)
light: DIVMTQSPDSLAVSLGERATISCKSSQSLLNSGNQKNYLTWYQQKPGQPPKLLIYWASTRESGVPDRFSGSGSGTDFTLTISSLQAEDVAVYYCQNDYFYPFTFGQGTKLEIKRTVAAPSVFIFPPSDEQLKSGTASVVCLLNNFYPREAKVQWKVDNALQSGNSQESVTEQDSKDSTYSLSSTLTLSKADYEKHKVYACEVTHQGLSSPVTKSFNRGEC
heavy: not shown
Regarding B1, in [1], the EC50 fold change came out at 0.62. The molecule further came in with a half-maximal effective concentration (EC50) in assay [2] of 10.3 nM.

B2: LB433 (bispecific antibody, human IgG1, kappa)
light: DIVMTQSPDSLAVSLGERATISCKSSQSLLNSGNQKNYLTWYQQKPGQPPKLLIYWASTRESGVPDRFSGSGSGTDFTLTISSLQAEDVAVYYCQNDYFYPFTFGQGTKLEIKRTVAAPSVFIFPPSDEQLKSGTASVVCLLNNFYPREAKVQWKVDNALQSGNSQESVTEQDSKDSTYSLSSTLTLSKADYEKHKVYACEVTHQGLSSPVTKSFNRGEC
heavy: QVQLVQSGAEVKKPGSSVKVSCKASGYAFSNYLIEWVKQAPGQGLEWIGLINPGSGGTNYNEKFKGKATITADKSTSTAYMELSSLRSEDTAVYYCARVYYGNSFAYWGQGTLVTVSS[human IgG1 constant region not shown]GGGGSGGGGSGGGGSSPGQGTQSENSCTHFPGNLPNMLRDLRDAFSRVKTFFQMKDQLDNLLLKESLLEDFKGYLGCQALSEMIQFYLEEVMPQAENQDPDIKAHVNSLGENLKTLRLRLRRCHRFLPCENKSKAVEQVKNAFNKLQEKGIYKAMSEFDIFINYIEAYMTMKIRN
notes: Ab10VH-Hc (hIgG1, K to A)-(G4S)3-IL10
Regarding B2, the binding result in [3] is “binds”.

B3: LB401 (bispecific antibody, human IgG1, kappa)
light: DIVMTQSPDSLAVSLGERATISCKSSQSLLNSGNQKNYLTWYQQKPGQPPKLLIYWASTRESGVPDRFSGSGSGTDFTLTISSLQAEDVAVYYCQNDYFYPFTFGQGTKLEIKRTVAAPSVFIFPPSDEQLKSGTASVVCLLNNFYPREAKVQWKVDNALQSGNSQESVTEQDSKDSTYSLSSTLTLSKADYEKHKVYACEVTHQGLSSPVTKSFNRGEC
heavy: QVQLVQSGAEVKKPGSSVKVSCKASGYAFSNYLIEWVKQAPGQGLEWIGLINPGSGGTNYNEKFKGKATITADKSTSTAYMELSSLRSEDTAVYYCARVYYGNSFAYWGQGTLVTVSS[human IgG1 constant region not shown]GGGGSGGGGSGGGGSGIPPHVQKSVNNDMIVTDNNGAVKFPQLCKFCDVRFSTCDNQKSCMSNCSITSICEKPQEVCVAVWRKNDENITLETVCHDPKLPYHDFILEDAASPKCIMKEKKKPGETFFMCSCSSDECNDNIIFSEEYNTSNPD
notes: Ab10VH-Hc (hIgG1, K to A)-(G4S)3-TGFβRII extracellular region; also called TRAP
On to B3, for which the EC50 was determined as 0.26 nM in assay [4]; 11.8 nM in assay [5]; 1.18 nM in [6]; 1.4 nM in assay [7]; 6.92 nM in [8].

B4: LB432 (bispecific antibody, human IgG1, kappa)
light: DIVMTQSPDSLAVSLGERATISCKSSQSLLNSGNQKNYLTWYQQKPGQPPKLLIYWASTRESGVPDRFSGSGSGTDFTLTISSLQAEDVAVYYCQNDYFYPFTFGQGTKLEIKRTVAAPSVFIFPPSDEQLKSGTASVVCLLNNFYPREAKVQWKVDNALQSGNSQESVTEQDSKDSTYSLSSTLTLSKADYEKHKVYACEVTHQGLSSPVTKSFNRGEC
heavy: SPGQGTQSENSCTHFPGNLPNMLRDLRDAFSRVKTFFQMKDQLDNLLLKESLLEDFKGYLGCQALSEMIQFYLEEVMPQAENQDPDIKAHVNSLGENLKTLRLRLRRCHRFLPCENKSKAVEQVKNAFNKLQEKGIYKAMSEFDIFINYIEAYMTMKIRNGGGGSGGGGSGGGGSQVQLVQSGAEVKKPGSSVKVSCKASGYAFSNYLIEWVKQAPGQGLEWIGLINPGSGGTNYNEKFKGKATITADKSTSTAYMELSSLRSEDTAVYYCARVYYGNSFAYWGQGTLVTVSS[human IgG1 constant region not shown]
Consider B4, for which the “EC50 change, 72 h against 0 h in serum” value in assay [9] came to 1.4 times. In addition, the EC50 in assay [10] is 0.083 nM; in assay [11], 0.08 nM; in assay [12], 0.115 nM; in assay [13], 11.3 nM.

B5: LB401.2 (bispecific antibody, human IgG1, kappa)
light: DIVMTQSPDSLAVSLGERATISCKSSQSLLNSGNNKNYLAWYQQKPGQPPKLLIYWASTRESGVPDRFSGSGSGTDFTLTISSLQAEDVAVYYCQNDYFYPFTFGQGTKLEIKRTVAAPSVFIFPPSDEQLKSGTASVVCLLNNFYPREAKVQWKVDNALQSGNSQESVTEQDSKDSTYSLSSTLTLSKADYEKHKVYACEVTHQGLSSPVTKSFNRGEC
heavy: QVQLVQSGAEVKKPGSSVKVSCKASGYAFSNYLIEWVKQAPGQGLEWIGLINPGSGGTNYNEKFKGKATITADKSTSTAYMELSSLRSEDTAVYYCARVYYGNSFAYWGQGTLVTVSS[human IgG1 constant region not shown]GGGGSGGGGSGGGGSGIPPHVQKSVNNDMIVTDNNGAVKFPQLCKFCDVRFSTCDNQKSCMSNCSITSICEKPQEVCVAVWRKNDENITLETVCHDPKLPYHDFILEDAASPKCIMKEKKKPGETFFMCSCSSDECNDNIIFSEEYNTSNPD
On to B5, for which the results for the EC50 in assay [4] and in assay [5] were 0.31 nM and 14.2 nM, respectively.

B6: LB4335 (bispecific antibody, human IgG1, kappa)
light: DIVMTQSPDSLAVSLGERATISCKSSQSLLNSGNQKNYLTWYQQKPGQPPKLLIYWASTRESGVPDRFSGSGSGTDFTLTISSLQAEDVAVYYCQNDYFYPFTFGQGTKLEIKRTVAAPSVFIFPPSDEQLKSGTASVVCLLNNFYPREAKVQWKVDNALQSGNSQESVTEQDSKDSTYSLSSTLTLSKADYEKHKVYACEVTHQGLSSPVTKSFNRGEC
heavy: QVQLVQSGAEVKKPGSSVKVSCKASGYAFSNYLIEWVKQAPGQGLEWIGLINPGSGGTNYNEKFKGKATITADKSTSTAYMELSSLRSEDTAVYYCARVYYGNSFAYWGQGTLVTVSSASTKGPSVFPLAPSSKSTSGGTAALGCLVKDYFPEPVTVSWNSGALTSGVHTFPAVLQSSGLYSLSSVVTVPSSSLGTQTYICNVNHKPSNTKVDKKV[human IgG1 Fc with changes not shown]AGGGGSGGGGSGGGGSSPGQGTQSENSCTHFPGNLPNMLRDLRDAFSRVKTFFQMKDQLDNLLLKESLLEDFKGYLGCQALSEMIQFYLEEVMPQAENQDPDIKAHVNSLGENLKTLRLRLRRCHRFLPCENKSKAVEQVKNAFNKLQEKGIYKAMSEFDIFINYIEAYMTMKIRN
For the molecule B6, the EC50 in assay [14] is 0.31 nM.

B7: LB4333 (bispecific antibody, human IgG1, kappa)
light: DIVMTQSPDSLAVSLGERATISCKSSQSLLNSGNQKNYLTWYQQKPGQPPKLLIYWASTRESGVPDRFSGSGSGTDFTLTISSLQAEDVAVYYCQNDYFYPFTFGQGTKLEIKRTVAAPSVFIFPPSDEQLKSGTASVVCLLNNFYPREAKVQWKVDNALQSGNSQESVTEQDSKDSTYSLSSTLTLSKADYEKHKVYACEVTHQGLSSPVTKSFNRGEC
heavy: QVQLVQSGAEVKKPGSSVKVSCKASGYAFSNYLIEWVKQAPGQGLEWIGLINPGSGGTNYNEKFKGKATITADKSTSTAYMELSSLRSEDTAVYYCARVYYGNSFAYWGQGTLVTVSS[human IgG1 constant region with L234A (EU numbers) not shown]GGGGSGGGGSGGGGSSPGQGTQSENSCTHFPGNLPNMLRDLRDAFSRVKTFFQMKDQLDNLLLKESLLEDFKGYLGCQALSEMIQFYLEEVMPQAENQDPDIKAHVNSLGENLKTLRLRLRRCHRFLPCENKSKAVEQVKNAFNKLQEKGIYKAMSEFDIFINYIEAYMTMKIRN
For the molecule B7, in [14], it took 0.19 nM to reach a half-maximal effect (EC50).

B8: LB4334 (bispecific antibody)
light: DIVMTQSPDSLAVSLGERATISCKSSQSLLNSGNQKNYLTWYQQKPGQPPKLLIYWASTRESGVPDRFSGSGSGTDFTLTISSLQAEDVAVYYCQNDYFYPFTFGQGTKLEIKRTVAAPSVFIFPPSDEQLKSGTASVVCLLNNFYPREAKVQWKVDNALQSGNSQESVTEQDSKDSTYSLSSTLTLSKADYEKHKVYACEVTHQGLSSPVTKSFNRGEC
heavy: QVQLVQSGAEVKKPGSSVKVSCKASGYAFSNYLIEWVKQAPGQGLEWIGLINPGSGGTNYNEKFKGKATITADKSTSTAYMELSSLRSEDTAVYYCARVYYGNSFAYWGQGTLVTVSS[human IgG1 constant region with changes not shown]GGGGSGGGGSGGGGSSPGQGTQSENSCTHFPGNLPNMLRDLRDAFSRVKTFFQMKDQLDNLLLKESLLEDFKGYLGCQALSEMIQFYLEEVMPQAENQDPDIKAHVNSLGENLKTLRLRLRRCHRFLPCENKSKAVEQVKNAFNKLQEKGIYKAMSEFDIFINYIEAYMTMKIRN
For the molecule B8, it took 0.23 nM to reach a half-maximal effect in assay [14] (EC50).
